From the RNAGym collection of RNA variant scans (doi:10.7554/elife.90254)
Read counts are not given, so values of variants with three or more changes are uncertain.

B1: OR4K15 (parent)
chain: GUUAACGGUCAUAGGCCAUGGAAACUAGGAGCACCAUUUCGCUGCCAGUGAAGAAAUGAACAAAGAAAAUCUGGGCCAGGCAGGCAUCAAAAGAAAUAGUCUUGCGCUCAACCAGAAAGUCUGUAAUCAUUUUAAGGGUA

Variants of: B1
Assay: self-cleavage, relative activity (ratio to wild type); higher = more cleavage; in vitro, sequencing; the parent is a self-cleaving ribozyme
GUUAACGGUCAUAGGCCAUGGAAACUAGGAGCACCAUUUCGCUGCCAGUGAAGAUAUGAACAAAGGAGAUCUGGGCCAGGCAGGCAUCAAAAGAAAUAGUCUUGCGCUCAACCAGAAAGUCUGUAAUCAUUUUAAGGGUA [A55U A66G A68G] gave a self-cleavage of 0.77.
For GUUAACGGUCAUAGGCCAUGGAAACUAGGAGCACCACUUCGCUGCCAGUGAAGAAAUGAACAAAGAAGAUCUGGGCCAGGCAGGCACCAAAAGAAAUAGUCUUGCGCUCAACCAGAAAGUCUGUAAUCAUUUUAAGGGUA [U37C A68G U87C], the self-cleavage was 1.18.
GUUAACGGUCAUAGGCCAUGGAAACUAGGAGCGCCAUUCCGCUGCCAGUGAAGAAAUGAACAAAGAAAAUCUGGGCCAGGCUGGCAUCAAAAGAAAUAGUCUUGCGCUCAACCAGAAAGUCUGUAAUCAUUUUAAGGGUA [A33G U39C A82U] showed a self-cleavage of 0.29.
GCUAACGGUCAUAGGCCAUGGGAACUAGGAGCACCAUUUCGCUGCCAGUGAAGGAAUGAACAAAGAAAAUCUGGGCCAGGCAGGCAUCAAGAGAAAUAGUCUUGCGCUCAACAAGAAAGUCUGUAAUCAUUUUAAGGGUA [U2C A22G A54G A91G C113A] gave a self-cleavage of 0.03.
Work on GUUAACGGUCAUAGGCCAUGGAAGCUAGGAGCACCAUUUCGCUGCCAGUGAAGAAAUGAACAAAGAAAAUCUGGGCCAGGCAGGCAUCAAGAGAAAUAGUCUUGCGCUCAACCAGAAAGUCUGUAGUCAUUUUAAGGGUA [A24G A91G A126G] yielded a self-cleavage of 0.54.
In the case of GUUAACGGUCAUAGGCCAUGGAAACUAGGUGCACCAUUUCGCUGCCAGUGAAGAAAUGAACAAAGAAAAUCUGGGCCAGGCAGGCAUCAAAAGAAAUAGUCUUGCGCUCAACCAGAAAGUCCGUAACCAUUUUAAGGGUA [A30U U122C U127C], the self-cleavage is reported as 0.92.
With GUUAACGGUCAUAGGCCAUGGAAGCUAGGAGCACCAUUUCGCCGCCAGUGAAGAAAUGAACAAAGAAAAUCUGGGCCAGGCAGGCAUCAAAAGAAAUAGUCUUGCGCUCAACCAGAAGGUCCGUAAUCAUCUUAAGGGUA [A24G U43C A118G U122C U131C] the self-cleavage was 0.48.
For GCUAACGGUCAUAGGCCAUGGAAACUAGGAUCACCAUUUCGCUGCCAGUGAAGAAAUGAACAAAGAAAAUCUGGGCCGGGCAGGCAUCAUAAGAAAUAGUCUUGCGCUCAACCAGAAAGACUGUAAUCAUUUUAAGGGUA [U2C G31U A78G A90U U120A], the self-cleavage was 0.45.
Variant GUUAACGGUCAUUGGCCAUGGAGGCUAGGAGCACCAUUUCGCUGCCAGUGAAGAAAUGAACAAAGAAAAUCUGGGCCGGGCAGGCAUCAAAAGAAAUAGUCUUGCGCUCAACCAGAGAGUCUGUAAUCAUUUUAAGGGUA [A13U A23G A24G A78G A117G] has a self-cleavage of 0.33.
In the case of GUUAACGGUCAUAGGCCAUGGAAACUAGGAGCACCAUUUCGCUGCCAGUUAAGAAAUGAACAAAGAAAAUCUGGGCCAGGCAGGCAUCAAAAGAAAUAGUCUUGCGCUCAACCAGAAAGUCUGUAGUCAUUUUAAGGGGA [G50U A126G U139G], the self-cleavage is reported as 1.31.
GUUAACGGUCGUAGGCCAUGGAAACUAGGAGCACCAUUUCGCUGCCAGUGAAGAAAUGAACAAAGAAAAUCUGGGCCAAGCAGGCAUCAAAAGGAAUAGUCUUGCGCUCAACCAGUGAGUCUGUAAUCAUUUUAAGGGUA [A11G G79A A94G A116U A117G] gave a self-cleavage of 0.
Work on GUUAACGGUCAUAGGCCAUGGAAACUAGGAGCACCAUUUCGCUGCCAGUGAAGAAAUGAACAAAGAAAAUCUGGGCCAGGCAGGCGUCAAAAGAAAUAGUCUUGCGCUCAACCAGAAAGUCUGUAAUCCUCCUAUGGGUA [A86G A129C U131C U132C A135U] yielded a self-cleavage of 0.
For GUUAACGGUCAUAGGCCAUGGAAACUAGGAGCACCAUUUCGCUGCCAGUGAAGUAAUGAACUAAGAAAAUCUGGGCCAGGCAGGCAUCAAAAGAAAUAGUCUUGCGCUCAACCAGAAAGUCUGCAAUCAUUUUAAGGGUA [A54U A62U U124C], the self-cleavage was 0.38.
Work on UUUAACGGUCAUAGGCCAUGGAAACUAGGAGCACCAUUUCGCUGCCAGUAAAGAAAUGAACAAAGAAAAUCUGGGCCAGGCAGGCAUCAAAAGAAAUAGUCUUGCGUUCAACCAGAAAGUCUGUAAUCAUUUUAAGGGUA [G1U G50A C107U] yielded a self-cleavage of 0.02.
With GUUAACGGUCAUAGGCCAUGGAGACUAGGAGCACCAUUUCGCUGCCAGUGAAGAAAUGAGCAAAGAGAAUCUGGGCCAGGCAGGCAUCAAAAGAAAUAGUCUUGCGCUCAACCAGAAAGUCUGUAAUCAUUUUAAGGGUA [A23G A60G A67G] the self-cleavage was 0.86.
Variant GUUAACGGUCAUAGGCCUUGGAAACUAGGUGCACCAUUUCGCUGCCAGUGAAGAAAUGAACAAAGAGAAUCUGGGCCAGGCAGGCAUCAAAAGAAAUAGUCCUGCGCUCAACCAGAAAGUCUGCAACCAUUUUAAGGGUA [A18U A30U A67G U102C U124C U127C] has a self-cleavage of 1.24.
GUUAACGGUCAUAGGCCAUGGAAACUAGGAGCACCAUAUCGCUGCCAGUGAAGAAAUGAACAAAGAAACUCUGGGCCAGGCAGGCAUCAAAAGAAAUAGUCUUGCGCACAACCAGAAAGUCUGUAAUCAUCUUAAGGGUA [U38A A69C U108A U131C] showed a self-cleavage of 0.
For GUUAACGGUCAUAGGCCAUGGAAACUAGGAGCACCAUUUCGCAGCCAGUGAAGAAAUGAGCAAAGAAAAUCUGGGCCAGGCAGGCAUCAAAAGGAAUAGUCUUGCGCUCAACCAGAAAGUCUGUAAUCAUUUUAAGGGUA [U43A A60G A94G], the self-cleavage was 1.35.
Variant GUUAACGGUCAUAGGCCAUGGAACCUAGGAGCACCAUUUCGCUGCCAGUGAAGAAAUGAACAGAGAAAAUCUGGGCCAGGCAGGCAUCAAAAGGAAUAGUCUUGCGCUCAACCAGAAAGUCUGUAAUCAUUUUAAGGGUA [A24C A63G A94G] has a self-cleavage of 2.15.
Work on GUUAACGGACAUAGGCCAUGGAAACUAGGAGCACCAUUUCGCUGCCAGUGAAGAAAUGAACAAAGAAAAUCUGGGCCGGGCAGGCAUCAAAAGAAAUAGUCUUGCGCUCAACCAGAAAGUCCGUAAUCAUUUUAAGGGUA [U9A A78G U122C] yielded a self-cleavage of 0.37.
Variant GUUAACGGUCAUAGGCCAUGGAAACUAGGAGCACCAUUCCGCUGCCAGUGAAGAAAUGAACAAAGAGAAUCUGGGCCAGGCAGGCAUCAAAAGAAAUAGUCUUGCGCUCAACCAGAAAGUCUGUAAUCAUUUUAAGAGUA [U39C A67G G137A] has a self-cleavage of 2.21.
